# ± gives the standard deviation of the averaged measurements. The list shows a part of the results.
# System: PfAP2-G AP2 domain (GST-tagged)
# Experiment: gcPBM binding intensity (ln(normalized median fluorescence intensity)); higher = stronger DNA binding
# In short: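 Alexa488 anti-GST antibody, scanned at 488 nm, detected GST-tagged P. falciparum DNA-binding domains that had been expressed in E. coli and incubated for 1 h on an Agilent 4 × 180k array. The array carried primer-extended double-stranded 36-bp intergenic genomic probes and negative controls. Binding intensity is the highest Masliner-normalised natural-log median intensity across replicate spots of either orientation of each probe.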
row,Sequence,gcPBM binding intensity (ln)
1,TAATTCTTTATTTTTCGTACGTAAAACAAAAAATAT [XGTACX_site862],11.1 ± 0.79
2,AATGTAAAGAACAAAACATGCAACTAGTTTACTTTT [TGCATGCA_site841],9.94 ± 0.042
3,TCGAATATCTTATAGGTGCATCATAAATACATATGT,10.2 ± 0.28
4,GAATAAAAAAAAAAAAAAATTTATTTTATAATAAAA [CACACA_negctrl_site1514],9.34 ± 0.042
5,ATATATATATATATATGTACATAAATATAAATTTAA [XGTACX_site8715],11.3 ± 0.91
6,TTAATTTCGAATTATTGTACATTAATATATCTACAG [XGTACX_site3314],10.8 ± 0.45
7,AAAACAAATAGACACGCACACAAAAAAAAAAAAAAA [CACACA_site801],10.3 ± 0.43
8,AAAAAATATATTAAGGCACACACATACATATATATA [CACACA_site9239],10 ± 0.18
9,CCTTTTGGATGAAAGTGTACAGGTGAGAAAAATTCC [XGTACX_site3358],11.2 ± 0.79
10,ATGCAATAATAATGGAGTACATATTAATATTGATCA [XGTACX_site2312],11.5 ± 1
11,CATTAGCATTTTATTACACACAATAAATTAGAAGTA [CACACA_site7837],10 ± 0.13
12,AAGAAAATGTAGAATTAGAAATAAATGAAGAAATGA [TGCATGCA_negctrl_site548],9.795 ± 0.021
13,AGTAGATTTTTATTAGTGCATTTTATACTACAAAAA,10.1 ± 0.11
14,TATATGTTTAATTTCACACACAAATATACATTTTAA [CACACA_site4171],9.91 ± 0.085
15,TATCCCTTAGAATACACACCCATATGAGGGTGAACT [CACACA_site5610],10 ± 0.11
16,CTTAATGATAAATACATACACACAAAAAATAATATA [CACACA_site2577],10 ± 0.028
17,ATATTTATTTATATCATACACACTAATATGTATATT [CACACA_site7576],9.97
18,TTTTAAAACAATGAGATTCCTTTCTTTTTTTCTTTT [CACACA_negctrl_site1320],9.5 ± 0.085
19,ATATTCTCTTAAATATGTACGTATGTATATATATAT [XGTACX_site5885],11.3 ± 0.94
20,CGCAAAACAATGATACGTACATATATATATATATAT [XGTACX_site5883],11.4 ± 0.92
21,TTTTTAATTTTATATACACACATAAAAGATATGAAG [CACACA_site7470],10 ± 0.4
22,ATTCTTAAATGTGGTTGTACATATTATCACCTTTAA [XGTACX_site8188],11.2 ± 0.71

row,Sequence,gcPBM binding intensity (ln)
1,AATGTACGCATATACACACACATAAATAGATACGTA [CACACA_site3406],11.5 ± 1
2,AACGAAAACACTACGTGTACCAAACGTCCTACCAAC [XGTACX_site257],11.2 ± 0.53
3,AATAGTTAAATACATACATGCATTCATATAATATAT [TGCATGCA_site433],9.89 ± 0.13
4,TAATTAAGAATATATAGTACATAGTTGAAAAACTTT [XGTACX_site6359],10.8 ± 0.46
5,AAGATAAAAATATGCACACATATATATATATATATA [CACACA_site404],9.97 ± 0.3
6,TTCAAAAAATATATCTGTACAAATTATGTAGATGAA [XGTACX_site5522],10.8 ± 0.48
7,TAGATCATAACAATTGCACACATTTGCATTTATATT [CACACA_site1562],9.9 ± 0.071
8,TTTTTACTTATTTATTATGTACAATTTCTTCTTTCT [CACACA_negctrl_site264],10.9 ± 0.66
9,TTTTTTTTTTTTTTTTTTTTACGATATATTTTAAAA [XGTACX_negctrl_site401],9.63 ± 0.39
10,TCTTATAAATTAAATATAAAAAAAAAAAAAAAAAAA [XGTACX_negctrl_site77],9.45 ± 0.38
11,TTTGTTGGTATGGTTACACACATTTAGGAAATAAAA [CACACA_site1411],10.4 ± 0.34
12,AAAATAATTCAATGTAGTACAATACAAATTGAGAGA [XGTACX_site5991],11.5 ± 1
13,AAAATTATACACACACGTACATATAAATAGAAATAT [XGTACX_site1753],11.3 ± 0.89
14,AGTATTTTGTTTATCACACATATTGGAATTTTCAAT [CACACA_site4686],10.03 ± 0.028
15,ATATTAAAAAAATATAAACACACAAAAAAAAAATAT [CACACA_site8283],9.98 ± 0.014
16,TATTCAAAGAAAAACTGTACGTGTAGCAAACGTCAT [XGTACX_site7713],11.5 ± 0.83
17,GGTGTTTTTCACAGATGTACACAAATAAAAAAGAAA [XGTACX_site4454],11.6 ± 0.71
18,TATATATAAAAAAAAAGTACATATAATATAATATTT [XGTACX_site7902],11.5 ± 1
19,AAATGGACAGTATAAAAATGGAGAATATAAAAATTT [CACACA_negctrl_site889],10.3 ± 0.36
20,CCTTTTTATTTTTGTAGTACTACATATACATATCTG [XGTACX_site7791],11.5 ± 0.88
21,AAAAAAAAAAAAAATAAATAAATAAATAAATATATA [GTGCAC_negctrl_site382],9.5 ± 0.37
22,TTTTTATAACAGCTTAGTACATATAAGAATTCTTGC [XGTACX_site5890],10.7 ± 0.54

# Source: the supplement of paper PMC11417369
